Results reported in patent US20220348651A1, “ENTPD2 ANTIBODIES, COMBINATION THERAPIES, AND METHODS OF USING THE ANTIBODIES AND COMBINATION THERAPIES” (Novartis AG, priority 2019, published 2022).

What was measured:
H520 cells = assay: Cross reactivity: FACS binding to H520 cells (ENTPD3 and ENTPD8 expression); set-up: species or system human; settings: 50 nM antibody
Protocol: FACS screening: Specific binding of candidate antibodies to endogenously expressed ENTPD2 was assessed by flow cytometry. Cells were rinsed thoroughly with 1×PBS and treated with Accutase (Millipore #SCR005) to lift from growth plates and resuspended at approximately 1×10^5 cells/90 μL in 1× FACS buffer (2% FBS+0.1% NaN3 in PBS). In a 96-well U-bottom plate, 10 μL of 10× antibody solution in FACS buffer was pre-seeded and 90 μL of cell suspension was added. Cell were incubated for 30 minutes at 4° C., washed 1× with cold PBS and resuspended in 100 μL of 1:500 secondary antibody 1× FACS buffer (Allophycocyanin conjugated F(ab′)2 goat anti-human IgG, Fcγ specific; Jackson Immunoresearch, Cat#109-136-098). After additional incubation for 15 min at 4° C., cells were washed twice with PBS and resuspended in 100 μL of 1×FACS buffer with 4 μg/mL propidium iodide (Life Technologies, Cat#P3566). Geometric mean fluorescence intensity was calculated on live single cells using FlowJo software.
H520 cells were identified as a cancer cell line with ENTPD3 (Ct 25) and ENTPD8 (Ct 26) expression by Taqman and were used for selectivity screening.

[1] = tested on: human ENTPD2 engineered B16LM3 clone B5; assay: Plasma and tumor cytokines 24 hr after treatment, B16LM3 clone B5 model; format: in vivo, C57BL/6 mice
Protocol: In order to understand immediate impact of ENTPD2 blockade from immune pathway engagement perspective, plasma and B16LM3 clone B5 tumors (mean tumor volume ˜170 mm^3) were collected from C57BL/6 mice 24 hr after treatment with anti-human ENTPD2 mAb1 or Isotype Control at 10 mg/kg.
Briefly, plasma was isolated via collection of blood into Microvette MV-H-300 Capillary Plasma Lithium Heparin Blood Collection tube (Sai Infusion technologies, Lake Villa, Ill.), that were spun down at 1000-2000×g for 10 min. Plasma samples were stored at −80° C. until use. Tumor samples were surgically excised and immediately frozen in liquid nitrogen. Tumor tissue was then homogenized in T-PER Tissue Protein Extraction Reagent (ThermoFisher, Waltham, Mass.) using the TissueLyser (Qiagen, Germany) instrument. Tumor lysate samples were spun down at 11,000 rpm for 15 min and supernatants were collected for protein concentration analysis using Pierce BCA Protein Assay Kit (ThermoFisher, Waltham, Mass.). 200μg of protein or 25 μl of undiluted plasma was used for cytokine analysis using the V-PLEX Mouse Cytokine 29-Plex Kit (MSD, Rockville, Md.) according to manufacturer's recommendations.

[2] = biological target: T1, recombinant human ENTPD2 (residues 29-462) (Homo sapiens, UniProt Q9Y5L3); assay: Biochemical human ENTPD2 functional assay (Transcreener ADP2 TR-FRET); settings: FIG. 15
T1 construct: residues 29-462 of human or cyno ENTPD2 were cloned into expression vector; GP67 signal peptide (N); made in house; host or cells: High Five (Trichoplusia ni) insect cells, baculovirus
T1 sequence (Q9Y5L3 29-462): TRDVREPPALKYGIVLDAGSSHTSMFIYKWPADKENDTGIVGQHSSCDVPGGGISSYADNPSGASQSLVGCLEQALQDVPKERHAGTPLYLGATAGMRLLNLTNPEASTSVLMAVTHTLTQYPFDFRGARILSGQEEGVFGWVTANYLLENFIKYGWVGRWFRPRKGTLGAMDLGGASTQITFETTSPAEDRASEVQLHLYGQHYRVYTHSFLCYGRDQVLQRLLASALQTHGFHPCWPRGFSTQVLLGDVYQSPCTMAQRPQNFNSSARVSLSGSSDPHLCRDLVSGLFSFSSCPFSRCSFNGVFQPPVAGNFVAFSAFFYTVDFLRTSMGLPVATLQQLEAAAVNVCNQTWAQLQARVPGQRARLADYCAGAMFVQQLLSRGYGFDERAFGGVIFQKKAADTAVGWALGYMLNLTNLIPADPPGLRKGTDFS
Description: Biochemical and cell-based functional assays were developed in-house to understand functional impact of anti-ENTPD2 Abs against purified extracellular domain of ENTPD2 (residues 29-462), as well as against the fully intact protein in the context of the native cell-based conformation. ENTPD2 hydrolyzes ATP to ADP, which can subsequently be detected using the HTRF Transcreener ADP2 TR-FRET Red Assay (BellBrook Labs, Madison, Wis.) where ENTPD2-produced ADP would compete with the ADP Tracer for binding to the anti-ADP-Tb antibody. The resulting signal is inversely proportional to the concentration of ADP in the sample. […]
HTRF signal (Emission at 620 nm and 665 nm) was assessed in both assays using the Envision plate reader in HTRF mode (Perkin Elmer, Waltham, Mass.). HTRF ratio was determined using the following formula: HTRF ratio=R=Emission at 665 nm/Emission at 620 nm×10,000. Subsequently % Residual Activity and % Inhibition were determined as follows:
Where R0% is the HTRF ratio of the negative control (0% enzyme activity), and R100% is the HTRF ratio of the positive control (100% enzyme activity). Data were analyzed in Microsoft Excel and graphed using GraphPad's Prism 7.0 software and IC50 values were obtained using non-linear regression, log (agonist) vs. response-variable slope (four parameters) analysis.

[3] = 10 mg/kg, 24 hr after treatment, vs Isotype Control

B1: mAb1: humanized anti-human ENTPD2 human IgG1 from mAb17; heavy chain SEQ ID NO: 12, light chain SEQ ID NO: 23 (antibody)
heavy: EVQLVQSGAEVKKPGESLKISCKASGYTFTDYNMDWVRQMPGKGLEWMGDINPKYDISTYNQQFKGQVTISADKSIRTAYLQWSSLKASDTAMYYCARRGFFLYYGINYYYFDVWGQGTLVTVSSASTKGPSVFPLAPSSKSTSGGTAALGCLVKDYFPEPVTVSWNSGALTSGVHTFPAVLQSSGLYSLSSVVTVPSSSLGTQTYICNVNHKPSNTKVDKRV[here human IgG1 Fc without letters]
light: DIQLTQSPSSLSASVGDRVTITCSASSSVSYIHWFQQKPGKAPKLLIYSTSNLASGVPSRFSGSGSGTFFTLTISSLQPEDFATYFCHQWSSYPWTFGQGTKVEIKRTVAAPSVFIFPPSDEQLKSGTASVVCLLNNFYPREAKVQWKVDNALQSGNSQESVTEQDSKDSTYSLSSTLTLSKADYEKHKVYACEVTHQGLSSPVTKSFNRGEC
B1 was tested, and the “Apparent FACS binding at 50 nM” value (H520 cells) was “No binding”, the “IL-1β at the tumor site” value [1, 3] was “trend suggesting a parallel reduction” and the “decrease of IL-1β in plasma” value [1, 3] was “approximately 2 -fold”. For the same molecule, the “increase in MCP1 at the tumor site” value [1, 3] was “approximately 2 -fold”, the “plasma MCP1” value [1, 3] was “significant decrease” and the “intratumoral M1 macrophages” value ([1]; syngeneic tumors) was “increase in intratumoral M1 macrophages”. For the same molecule, the “inhibition of the catalytic activity of recombinant human ENTPD2” value [2] was “potently inhibit”.
